Test results taken from the supplement of paper PMC11417369.
± gives the standard deviation of the averaged measurements. The list shows a part of the results.

These sequences were tested on PfAP2-LT AP2 domain (GST-tagged) (assay: gcPBM binding intensity (ln(normalized median fluorescence intensity)); higher = stronger DNA binding).
Summary of the method: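 GST-tagged P. falciparum DNA-binding domains produced in E. coli were incubated for 1 h on an Agilent 4 × 180k array of primer-extended double-stranded 36-bp intergenic genomic probes with negative controls. Binding intensity is the highest Masliner-normalised natural-log median intensity across replicate spots of either probe orientation, with bound protein detected by Alexa488 anti-GST antibody at 488 nm.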

Point of comparison: “TCGTATATGGATTTTGCACACAATTTTAATTTAAAT [CACACA_site4635]”, “gcPBM binding intensity (ln)” value 9.1 ± 0.4. Against it:
- AAAAATAAAAAAAGCACACACATATATATATATATA [CACACA_site1885] — higher, 9.9 ± 0.33
- TGATATTTACAAATATTAAGATCTTATATTTTTTTT [CACACA_negctrl_site617] — within error, 8.46 ± 0.53
- GTGTGAAACATAAACACACACAAAAAGAAAAAATAG [CACACA_site1227] — within error, 9.52 ± 0.47
- AATATAAATATTAAAACACACATAAAAAGATTATTA [CACACA_site1764] — within error, 8.7 ± 0.53
- TATATATATATATTACGTACATAGAACTTTATAAAA [XGTACX_site4485] — within error, 8.64 ± 0.35
- AATATTTTATTTTGGGTGCAAAAGAATATTATTTCA — within error, 8.31 ± 0.45
- AGCACATATATATTATGTACATATAACTTCCCAGTG [XGTACX_site7095] — within error, 8.97 ± 0.35
- TATTACATAATACAAAGTACATATATTTTTTTATTT [XGTACX_site7061] — within error, 8.52 ± 0.41
- GTATATATATATATATGTACTAATTAGTAGTTTACG [XGTACX_site6274] — within error, 9.01 ± 0.32
- AATATTATAAATGATACACACTTAAAATACACGCAC [CACACA_site7305] — within error, 9.2 ± 0.26
- ATATTTATACATAAATGTACTTTTATATATTTAATA [XGTACX_site3020] — within error, 8.57 ± 0.45
- TAACAATTAATAAAAGGTACACTTGAATATGCACCA [XGTACX_site2717] — within error, 8.54 ± 0.45
- AATATATATATATATACACACACACCGATATATATA [CACACA_site8158] — higher, 9.87 ± 0.2
- TTAATATTTAGACATGCATGCTAATTACTATATATA [TGCATGCA_site27] — within error, 8.99 ± 0.56
- AATTTTAAGAGCTATACATGCACTTCATAAAAAGTG [TGCATGCA_site180] — within error, 8.42 ± 0.38
- ATAATAAAAAAAAATGCACACATATATATATATATA [CACACA_site8766] — higher, 9.7 ± 0.11
- GTAGAGCATAATAAAACACACACATACATACATATA [CACACA_site8217] — within error, 9.64 ± 0.35
- ATGGACATCTATTGTTGTACACATTTTCCCATAACA [XGTACX_site5429] — within error, 8.86 ± 0.42
- TTTCAAAAATGAGTTACACACACACGGATATAAATA [CACACA_site7116] — within error, 9.35 ± 0.33
- GAATATAAAATATATATATATATATATATATATATA [GTGCAC_negctrl_site425] — higher, 9.6 ± 0.085
- TTATAAATATAAAAATGTACAGAAAAAAAAAATAAA [XGTACX_site863] — within error, 8.68 ± 0.54
- AAAAGATTTATACATACACACATATTATATTCACAT [CACACA_site3713] — within error, 9.16 ± 0.45
- GTAAAAAATATGACAAGTACAAGAAAAGAAAAAAGT [XGTACX_site7906] — within error, 9.29 ± 0.5
- ATAGAACTATATTGCACACATAATATATATATATAT [CACACA_site3189] — within error, 9.36 ± 0.13
- TAATATAAAGAAAAGGAACACACAAATATATATATA [CACACA_site8049] — within error, 9.04 ± 0.38
- TTTTCTTGGTTCAGTGTGCACTTATATATATATATA — within error, 9.21 ± 0.39
- TTATAATATATATACAGTACATATATAAAATAATAT [XGTACX_site5917] — within error, 8.71 ± 0.41
- TTATTTCTCTTTTCAGTGCATTTTATAACAAAAAAA [GTGCAC_site9930] — lower, 8.17 ± 0.24
- ATATATATAATATGCGGTACACATTAATTAAATCAT [XGTACX_site5702] — within error, 8.91 ± 0.42
- TTATTTTATAATAAAAGTACACAAAAAAAAAAAAAA [XGTACX_site7668] — within error, 8.38 ± 0.42
- TAATTATGCAGACACACACACACACCCAACTAAAAA [CACACA_site2569] — higher, 9.96 ± 0.23
- ATATATTATATAAAGTGTACAAAAAAAATATATAAA [XGTACX_site8065] — within error, 8.9 ± 0.45
- CTATTTCATGGACACACACACACAAACAAACATATA [CACACA_site4696] — higher, 9.9 ± 0.26
- TTATTGCATTGTTTTTATAAAAAAAAAAAAAAAATT [XGTACX_negctrl_site104] — within error, 8.36 ± 0.57
- ATATATATTTTATTCACACATAAGATTATAAAACAT [CACACA_site5369] — within error, 8.59 ± 0.39
- TATGATATAATTATGTGTACACAATTTTTTTTTTTT [XGTACX_site1084] — within error, 8.76 ± 0.5
- TGTGTTCAGTATTGCACACACACAACAAAATAAAAA [CACACA_site8017] — within error, 9.44 ± 0.35
- ATTAATAAGAAATATACACACATGGATAAATACATA [CACACA_site1872] — within error, 9.07 ± 0.39
- TTTCTTGCTACATGAAGTACACTTTCTATGACTCGT [XGTACX_site5583] — within error, 8.81 ± 0.54
- AAAAAAAAATTTTTAAAATTTAGAAAATTTAAAAAA [GTGCAC_negctrl_site649] — lower, 7.99 ± 0.61
- TAATAATGCAACCTCTGTACACAACATTATATCCAT [XGTACX_site7596] — within error, 8.95 ± 0.46
- TATATATAAGCGTGTACACATTCTGAGTGTTGTATA [CACACA_site4502] — within error, 9.06 ± 0.38
- ATATTTAATGTTAATTGTACATATTATATATATATA [XGTACX_site6095] — within error, 8.77 ± 0.35
- ATAATATTATTATAATGTACATATTTCGATATAAAT [XGTACX_site8808] — within error, 8.7 ± 0.43
- GATTATACAAAATATACACACGTGTAGACAAATATT [CACACA_site4785] — within error, 9.37 ± 0.43
- ATATATATTAATAGGTGTACATATAAAGTGTTATGT [XGTACX_site5464] — within error, 8.93 ± 0.35
- AAAAAAATATATATTACACACATATATACCTATATA [CACACA_site5688] — within error, 8.95 ± 0.33
- ACAAAAAATAATCAAAATGTATATATATAATATAAT [XGTACX_negctrl_site593] — within error, 8.86 ± 0.47
- TATTGAAGTTATAAAGTGCAGATAAATATGAGTTAT [GTGCAC_site9945] — within error, 8.85 ± 0.52
- AAATGCCATATAATTTTTCTTAAACATAATTGTATA [CACACA_negctrl_site1665] — within error, 8.38 ± 0.43
- ATTGTCTTCTCATATACACACTTTTATGACTATCTT [CACACA_site5696] — within error, 9.21 ± 0.48
- TGTGTAATTATATATAAGGAGAAAGAATTCATTTTT [CACACA_negctrl_site670] — within error, 8.48 ± 0.49
- ATTATCCATGCATTTACACACACACCCAAAAAAATT [CACACA_site4101] — within error, 9.61 ± 0.15
- AAAGGGGCATATATATGTACATATTATATATTTTGA [XGTACX_site2436] — within error, 8.86 ± 0.37
- TATGTGAATATAATCACACACAATACGGAAACCCAC [CACACA_site2725] — within error, 9.51 ± 0.28
- AAAGTCTCATTAAAATGTACAAAATTTTCAGCTGTA [XGTACX_site6296] — within error, 8.48 ± 0.45
- TAATTTTTAATTGTAGCATGCAGTATTTTTAAATAT [TGCATGCA_site140] — within error, 8.46 ± 0.37
- AATACATTGTCAAATTGTACAAATTATAGAACTATT [XGTACX_site2222] — within error, 8.86 ± 0.4
- TGTTTTTATATATATGCACACAATGTACAAGTATAC [CACACA_site3529] — within error, 9.23 ± 0.35
- CCATAAAAAGGATACACACACACACCCACATATATA [CACACA_site903] — higher, 10.1 ± 0.32
- ATAAATATGGAGCACACACACATAAACATACCTATA [CACACA_site6336] — higher, 9.82 ± 0.3
- GATCTACATGAAAGGACACACAAATATATATATATA [CACACA_site84] — within error, 9.62 ± 0.35
- TTAAAAATGATTGAATGTACAGATTAATATAATTTT [XGTACX_site7394] — within error, 8.4 ± 0.57
- TAATTTTTGAAACACACACACATATATATATATATA [CACACA_site94] — higher, 9.885 ± 0.0071
- ATAATAAGGTTAAGCACACATATTACAGATATAACT [CACACA_site5791] — within error, 9.03 ± 0.42
- AAATATTATGTGGCAAGTACATAAAGAAAATGCTTA [XGTACX_site3356] — within error, 8.89 ± 0.56
- AATAATAATAATAATAGTACATATTATGAATATGAT [XGTACX_site5730] — within error, 8.81 ± 0.46
- AAAAAAAAATATATATAAAATTAAAAAATGTAATAT [GTGCAC_negctrl_site581] — within error, 8.62 ± 0.49
- ATGGGTTGTTCAAATAGTACATATGTAGCCCACCAT [XGTACX_site3735] — within error, 8.93 ± 0.39
- ATTAAAAAAAAAAGTATACACACTTCTTAATGTCAA [CACACA_site1244] — within error, 8.64 ± 0.35
- TTATATCCCGTCCTTTATTAAAAAAATTTTTTTTCT [TGCATGCA_negctrl_site582] — within error, 8.59 ± 0.52
- AAAAAAGAATAGCACACACACATATATAAATATAAA [CACACA_site4518] — higher, 9.69 ± 0.16
- TTTTTTTTTTTTTGTGCATGTAGATTTATTGTTATA [TGCATGCA_site582] — within error, 8.79 ± 0.39
- TTTAAATATATATTTAGTACTTATTCTTAAAATTTT [XGTACX_site624] — within error, 8.38 ± 0.5
- AATTATACATACATATATATATTTATATATATATAT [GTGCAC_negctrl_site462] — within error, 8.89 ± 0.39
- GTAGAGGATTAAGAATGTACACATAAATACATATTT [XGTACX_site8874] — within error, 8.8 ± 0.59
- GTTACATACAGATACACACACATATATATATATATA [CACACA_site4652] — higher, 10.2 ± 0.4
- TTTTTTTTTTTTTTAATTAATTACCTTTGAATGTGT [CACACA_negctrl_site393] — within error, 8.64 ± 0.57
- TAATAATTTTATAAAGTGCATAAAAATAAAAATTTT — within error, 8.42 ± 0.51
- AACAAATAAACAAAATTGGAAAATAAAAATATCAAA [CACACA_negctrl_site1125] — within error, 8.69 ± 0.47
- ATGATTTGTCTGAAATGTACATATATATATATATAT [XGTACX_site5247] — higher, 9.535 ± 0.021
- GAAAAAATATATAAATGTACATATAATAATATCATA [XGTACX_site6788] — within error, 8.82 ± 0.47
- ATATATATTTTATTATGTACATATAAATATTACACA [XGTACX_site4062] — within error, 8.7 ± 0.42
- ATTATTTTTTTATGTTGTACATAATATTTTTTAAAA [XGTACX_site1666] — within error, 8.54 ± 0.45
- ATATATATGGATGGACGTACGTATGTATGTAATTTC [XGTACX_site4135] — within error, 9.26 ± 0.36
- TAATATTTATAAAATAGTACACAGAAAAAGCATTTT [XGTACX_site8948] — within error, 8.62 ± 0.52
- CTTAAAAATAACTGCACACAAAAATAAATACCTTAT [CACACA_site2793] — within error, 9.12 ± 0.3
- TTCCAACATTGTTTTTGTACATAATTAACTGTTATT [XGTACX_site5224] — within error, 8.96 ± 0.39
